For 23 molecules, cell count results are on record in the supplement of paper PMC4604168 (melanoma cell lines).

The list shows a part of the results. Most values come without repeats; read them as rough.

Experiment in all cases: cell count relative to DMSO control; melanoma cells; higher = more viable cells
Holding throughout (conditions): library dose: low library concentration; 72 h

Test [1] concerns WM115.
The subject of test [2] is WM1716.
In test [3] the test system is WM1745.
In test [4] the test system is WM3526.
Test [5] has as its system WM3619.
The test system of test [6] is WM451Lu.
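Note: cell number obtained by counting DAPI-stained nuclei in high-throughput microscope images with image analysis software, screen run in 1,536-well plates.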

For `COc1cc([C@@H]2c3cc4c(cc3[C@@H](O[C@@H]3O[C@@H]5CO[C@@H](C)O[C@H]5[C@H](O)[C@H]3O)[C@H]3COC(=O)[C@H]23)OCO4)cc(OC)c1O` [etoposide] + CN(c1ncccc1CNc1nc(Nc2ccc3c(c2)CC(=O)N3)ncc1C(F)(F)F)S(C)(=O)=O [PF562271] (first compound 0.02 µM, partner dose 0.08 µM), the cell count in test [1] stood at 81.3%; in test [2], 80.9%; in test [3], 88.5%; in test [4], 85.2%; in test [5], 83.3%; in test [6], 85.6%.

Turning to `COc1cc([C@@H]2c3cc4c(cc3[C@@H](O[C@@H]3O[C@@H]5CO[C@@H](C)O[C@H]5[C@H](O)[C@H]3O)[C@H]3COC(=O)[C@H]23)OCO4)cc(OC)c1O` [etoposide] + CCCS(=O)(=O)Nc1ccc(F)c(C(=O)c2c[nH]c3ncc(Cl)cc23)c1F [PLX4720] (first compound 0.02 µM, partner dose 0.08 µM), the cell count in test [1] was 98.6%; in test [2], 111%; in test [3], 94.8%; in test [4] it was 91.8%; in test [5], 88.7%; in test [6], 110%.

In the case of `C[C@]1(O)C[C@@H](c2nc(-c3ccc4ccc(-c5ccccc5)nc4c3)c3c(N)nccn32)C1` + O=C(O)c1ccc(-c2c[nH]c3ncc(-c4ccccc4)cc23)cc1C1CCCC1 [GSK650394] (first compound 0.4 µM, partner dose 0.16 µM), the cell count was found to be 92.8% in test [1]; 104% in test [2]; 90.8% in test [3]; 86.1% in test [4]; 113% in test [5]; 68.2% in test [6].

In the case of `COc1cc([C@@H]2c3cc4c(cc3[C@@H](O[C@@H]3O[C@@H]5CO[C@@H](C)O[C@H]5[C@H](O)[C@H]3O)[C@H]3COC(=O)[C@H]23)OCO4)cc(OC)c1O` [etoposide] + NCC(=O)Nc1ccc(-n2nc(C(F)(F)F)cc2-c2ccc3c(ccc4ccccc43)c2)cc1 [OSU03012] (first compound 0.02 µM, partner dose 1 µM), the cell count in test [1] came to 84.4%; in test [2], 88.9%; in test [3], 91.2%; in test [4] it was 51%; in test [5], 98.6%; in test [6], 59.6%.

Turning to `Cn1cnc2c(F)c(Nc3ccc(Br)cc3Cl)c(C(=O)NOCCO)cc21` [selumetinib] + CNC(=O)c1cc(Oc2ccc(NC(=O)Nc3ccc(Cl)c(C(F)(F)F)c3)cc2)ccn1 [sorafenib] (first compound 0.015 µM, partner dose 0.4 µM), the cell count was determined as 87.1% in test [1]; 90.5% in test [2]; 100% in test [3]; 80.2% in test [4]; 92.7% in test [5]; 94.2% in test [6].

Take `CCN(CC)CCNC(=O)c1c(C)[nH]c(/C=C2\C(=O)Nc3ccc(F)cc32)c1C` [sunitinib] + CN(c1ncccc1CNc1nc(Nc2ccc3c(c2)CC(=O)N3)ncc1C(F)(F)F)S(C)(=O)=O [PF562271] (first compound 0.4 µM, partner dose 0.08 µM): the cell count in test [1] worked out at 103%; in test [2] it was 130%; in test [3] it was 63.8%; in test [4] it was 103%; in test [5], 115%; in test [6], 89.2%.

Take `C[C@]1(O)C[C@@H](c2nc(-c3ccc4ccc(-c5ccccc5)nc4c3)c3c(N)nccn32)C1` + N#Cc1c(O)c2c(-c3ccc(-c4ccccc4O)cc3)csc2[nH]c1=O [A769662] (first compound 0.4 µM, partner dose 2 µM): the cell count came out at 96.6% in test [1]; 113% in test [2]; 85.5% in test [3]; 86.8% in test [4]; 87.8% in test [5]; 92.4% in test [6].

Take `COc1cc([C@@H]2c3cc4c(cc3[C@@H](O[C@@H]3O[C@@H]5CO[C@@H](C)O[C@H]5[C@H](O)[C@H]3O)[C@H]3COC(=O)[C@H]23)OCO4)cc(OC)c1O` [etoposide] + Cc1cc(Nc2cc(N3CCN(C)CC3)nc(/C=C/c3ccccc3)n2)n[nH]1 [ENMD2076] (first compound 0.02 µM, partner dose 0.04 µM): the cell count came to 77.3% in test [1]; 89.7% in test [2]; 113% in test [3]; 102% in test [4]; 86.6% in test [5]; 89% in test [6].

For `COc1cc([C@@H]2c3cc4c(cc3[C@@H](O[C@@H]3O[C@@H]5CO[C@@H](C)O[C@H]5[C@H](O)[C@H]3O)[C@H]3COC(=O)[C@H]23)OCO4)cc(OC)c1O` [etoposide] + CC(=O)c1c(C)c2cnc(Nc3ccc(N4CCNCC4)cn3)nc2n(C2CCCC2)c1=O [palbociclib] (first compound 0.02 µM, partner dose 0.04 µM), the cell count in test [1] worked out at 73.3%; in test [2], 64.3%; in test [3] it was 59.4%; in test [4], 46.5%; in test [5] it was 58.7%; in test [6] it was 91.3%.

Turning to `C[C@]1(O)C[C@@H](c2nc(-c3ccc4ccc(-c5ccccc5)nc4c3)c3c(N)nccn32)C1` + C=CCn1c(=O)c2cnc(Nc3ccc(N4CCN(C)CC4)cc3)nc2n1-c1cccc(C(C)(C)O)n1 [MK1775] (first compound 0.4 µM, partner dose 0.02 µM), the cell count in test [1] is 84.3%; in test [2], 97.2%; in test [3] it was 45.5%; in test [4] it was 70.7%; in test [5] it was 88%; in test [6], 111%.

As to `CCN(CC)CCNC(=O)c1c(C)[nH]c(/C=C2\C(=O)Nc3ccc(F)cc32)c1C` [sunitinib] + COc1ccc(Cl)c(Nc2nc3ccccc3nc2NS(=O)(=O)c2cccc(NC(=O)C(C)(C)N)c2)c1 [XL147] (first compound 0.4 µM, partner dose 0.8 µM), the cell count in test [1] was determined as 115%; in test [2], 123%; in test [3], 74%; in test [4], 82.3%; in test [5] it was 102%; in test [6] it was 95.9%.

As for `CCN(CC)CCNC(=O)c1c(C)[nH]c(/C=C2\C(=O)Nc3ccc(F)cc32)c1C` [sunitinib] + Cn1c(Nc2ccc(C(F)(F)F)cc2)nc2cc(Oc3ccnc(-c4ncc(C(F)(F)F)[nH]4)c3)ccc21 [CHIR265] (first compound 0.4 µM, partner dose 0.08 µM), the cell count turned out to be 56.9% in test [1]; 105% in test [2]; 60.2% in test [3]; 67.9% in test [4]; 122% in test [5]; 73.1% in test [6].

Regarding `Cn1cnc2c(F)c(Nc3ccc(Br)cc3Cl)c(C(=O)NOCCO)cc21` [selumetinib] + O=C1NC(=O)/C(=C/c2ccc(-c3ccc(F)cc3O)o2)S1 [AS252424] (first compound 0.015 µM, partner dose 1 µM), the cell count in test [1] turned out to be 81.2%; in test [2] it was 99.1%; in test [3], 95.5%; in test [4] it was 52.3%; in test [5], 68.3%; in test [6], 96%.

As to `CCN(CC)CCNC(=O)c1c(C)[nH]c(/C=C2\C(=O)Nc3ccc(F)cc32)c1C` [sunitinib] + N#Cc1c(O)c2c(-c3ccc(-c4ccccc4O)cc3)csc2[nH]c1=O [A769662] (first compound 0.4 µM, partner dose 2 µM), the cell count was determined as 106% in test [1]; 134% in test [2]; 84.2% in test [3]; 102% in test [4]; 103% in test [5]; 111% in test [6].

In the case of `CCN(CC)CCNC(=O)c1c(C)[nH]c(/C=C2\C(=O)Nc3ccc(F)cc32)c1C` [sunitinib] + CC(=O)O[C@@]12CO[C@@H]1C[C@H](O)[C@@]1(C)C(=O)[C@H](O)C3=C(C)[C@@H](OC(=O)[C@H](O)[C@@H](NC(=O)OC(C)(C)C)c4ccccc4)C[C@@](O)([C@@H](OC(=O)c4ccccc4)[C@H]21)C3(C)C [Docetaxel] (first compound 0.4 µM, partner dose 0.0001 µM), the cell count is 70.7% in test [1]; 55.5% in test [2]; 67.6% in test [3]; 48.8% in test [4]; 89.4% in test [5]; 65.1% in test [6].

`CCN(CC)CCNC(=O)c1c(C)[nH]c(/C=C2\C(=O)Nc3ccc(F)cc32)c1C` [sunitinib] + c1cc(-c2cnn3cc(-c4ccc(OCCN5CCCCC5)cc4)cnc23)ccn1 [Dorsomorphin] (first compound 0.4 µM, partner dose 0.4 µM): the cell count in test [1] came out at 98.6%; in test [2] it was 111%; in test [3] it was 59.1%; in test [4], 94.5%; in test [5], 122%; in test [6] it was 70.2%.

Regarding `C[C@]1(O)C[C@@H](c2nc(-c3ccc4ccc(-c5ccccc5)nc4c3)c3c(N)nccn32)C1` + O=S(=O)(c1ccccc1)N(CC(F)(F)F)c1ccc(C(O)(C(F)(F)F)C(F)(F)F)cc1 [T0901317] (first compound 0.4 µM, partner dose 1.4 µM), the cell count in test [1] was 106%; in test [2], 92.8%; in test [3], 72.1%; in test [4] it was 76%; in test [5] it was 103%; in test [6] it was 83.8%.

With `CCN(CC)CCNC(=O)c1c(C)[nH]c(/C=C2\C(=O)Nc3ccc(F)cc32)c1C` [sunitinib] + Cn1cc(/C=C2\C(=O)Nc3cccnc32)c2ccccc21 [GW441756] (first compound 0.4 µM, partner dose 0.4 µM), the cell count stood at 99.5% in test [1]; 123% in test [2]; 78.1% in test [3]; 82.3% in test [4]; 124% in test [5]; 98.6% in test [6].

`COc1cc([C@@H]2c3cc4c(cc3[C@@H](O[C@@H]3O[C@@H]5CO[C@@H](C)O[C@H]5[C@H](O)[C@H]3O)[C@H]3COC(=O)[C@H]23)OCO4)cc(OC)c1O` [etoposide] + COc1cc(Nc2ncc(F)c(Nc3ccc4c(n3)NC(=O)C(C)(C)O4)n2)cc(OC)c1OC [Tamatinib] (first compound 0.02 µM, partner dose 0.4 µM): the cell count in test [1] worked out at 72.9%; in test [2] it was 78.1%; in test [3], 60%; in test [4], 85.7%; in test [5] it was 132%; in test [6], 97.6%.

Regarding `CCN(CC)CCNC(=O)c1c(C)[nH]c(/C=C2\C(=O)Nc3ccc(F)cc32)c1C` [sunitinib] + O=C(O)C(=O)Nc1sc2c(c1C(=O)O)CCNC2 [TCS401] (first compound 0.4 µM, partner dose 1.66667 µM), the cell count in test [1] was 95.4%; in test [2], 144%; in test [3], 77%; in test [4], 113%; in test [5], 93.2%; in test [6], 99.6%.

Turning to `COc1cc([C@@H]2c3cc4c(cc3[C@@H](O[C@@H]3O[C@@H]5CO[C@@H](C)O[C@H]5[C@H](O)[C@H]3O)[C@H]3COC(=O)[C@H]23)OCO4)cc(OC)c1O` [etoposide] + Oc1cc(-c2nc(-c3ccccc3)[nH]c2-c2ccncc2)ccc1Cl [L779450] (first compound 0.02 µM, partner dose 0.2 µM), the cell count in test [1] was determined as 76.6%; in test [2], 94.9%; in test [3], 87.7%; in test [4] it was 86.2%; in test [5], 96.7%; in test [6] it was 104%.

Consider `COc1cc([C@@H]2c3cc4c(cc3[C@@H](O[C@@H]3O[C@@H]5CO[C@@H](C)O[C@H]5[C@H](O)[C@H]3O)[C@H]3COC(=O)[C@H]23)OCO4)cc(OC)c1O` [etoposide] + NC(=O)Nc1cc(-c2cccc(F)c2)sc1C(=O)N[C@H]1CCCNC1 [AZD7762] (first compound 0.02 µM, partner dose 0.02 µM), for which the cell count in test [1] came out at 89.7%; in test [2], 74.1%; in test [3], 85.3%; in test [4], 89.1%; in test [5] it was 39.2%; in test [6], 91.3%.

For `COc1cc([C@@H]2c3cc4c(cc3[C@@H](O[C@@H]3O[C@@H]5CO[C@@H](C)O[C@H]5[C@H](O)[C@H]3O)[C@H]3COC(=O)[C@H]23)OCO4)cc(OC)c1O` [etoposide] + COC(=O)c1sccc1S(=O)(=O)Nc1ccc(Nc2ccccc2)cc1OC [GSK0660] (first compound 0.02 µM, partner dose 1 µM), the cell count was found to be 90% in test [1]; 80.4% in test [2]; 106% in test [3]; 95.7% in test [4]; 92.9% in test [5]; 99.4% in test [6].
